# Assay results reported in the supplement of paper PMC11417369.
# The list shows a part of the results.
# System: PfHDP1 homeodomain (GST-tagged)
# Test: gcPBM binding intensity (ln(normalized median fluorescence intensity)); higher = stronger DNA binding
# How it was run: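 In this array assay, P. falciparum DNA-binding domains with a GST tag, expressed in E. coli, were applied for 1 h to primer-extended double-stranded 36-bp intergenic genomic probes and negative controls on an Agilent 4 × 180k array. Bound protein was visualised with Alexa488 anti-GST antibody at 488 nm. Binding intensity is the highest Masliner-normalised natural-log median intensity across replicate spots of either probe orientation.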
row,Sequence,gcPBM binding intensity (ln)
1,AAGAAAAAAATATATGTTTATTTACTTTAATAATTT [TGCATGCA_negctrl_site168],5.83
2,TAATATTTACATATTACACACACGTATTATTAAATA [CACACA_site6340],6.64
3,TATTTTTTAAAAATGGGTACACATAAATAAATAAAT [XGTACX_site7643],6.83
4,TGTGAATAAATAAGCACACATAAACCCATATATAAA [CACACA_site4103],6.83
5,ATCTAAACAAATAATACACACAATAAAATAGGAAGA [CACACA_site4072],7.05
6,AATCACCAAATATGTACACACCTTAACATGTTTATA [CACACA_site5180],6.9
7,AAGAAAAATTTAAACTGTACTTGTTTTCCAATGAAC [XGTACX_site4443],6.38
8,AAAAAAAAAAAAGTTACACACAAATAAAATATTTGG [CACACA_site694],6.11
9,ATTATTCATTTATGTAGTACATTTTAATACATTTAA [XGTACX_site3599],6.64
10,ATAAAAAAAAATAAATGTACAAATTAACAAAATAAT [XGTACX_site5048],6.86
11,AAATAAAACAATTAACGTACAAGCATATATATATAT [XGTACX_site8508],9.1
12,ATTTATTAAATTTATAGTACTCAAAGATTTTTATTT [XGTACX_site6661],6.27
13,AAATAAAAAAAAATAGCACACATAAATATATTATAT [CACACA_site8155],6.87
14,TATATATATATTATATGTACACAAGGAAATATGCAT [XGTACX_site5637],8.32
15,TATGTATAATTATTTTGTACTTATTAAATTTTTTTT [XGTACX_site5413],5.9
16,TTCAAAATAAAAAATTCACACACATATATATATATA [CACACA_site8653],9.22
17,ATCTATGAAAAAGGTACATGCAATAAAGAAACATAT [TGCATGCA_site805],7.34
18,TAATAATAGAGACACACACACATAGACATATAAATA [CACACA_site6729],6.87
19,TTATAATCAATGAATACACACATATATTTCATTAAT [CACACA_site5909],6.41
20,TTATACTATTTTTATACATGCATTTCTATATATTTT [TGCATGCA_site316],6.6
21,ACATGTAATATAATGTGTACATATACAAAGGTATAT [XGTACX_site4145],6.6
22,AGATGAGAAATATATACACACAATAATACCTATTTA [CACACA_site876],6.45
23,ATAAAGTATATTATATGTACATATATATATTATATA [XGTACX_site1345],6.43

row,Sequence,gcPBM binding intensity (ln)
1,GAGCCCAAAAAATTAGGTACGTATAAAGAGGTATTT [XGTACX_site5348],6.26
2,TTTGTGTTGTATTTTTGTACATAAAATAAACTTAAA [XGTACX_site4637],6.65
3,TTTCTTTTTTCTTCAGTGCATTAAAATTAACAAAAG,9.58
4,TCTTTTTTCATATTTTCACACATGTCTTTATATTTA [CACACA_site6025],7.62
5,AGGAAAATTTTATTTGCACACATTATTACGTCTAAA [CACACA_site2337],10.4
6,CATATATATATTGGAAGTACATATTTAATATTCATT [XGTACX_site3545],6.4
7,ATATAAACATATAATAGTACACTTCGATAATTTTAT [XGTACX_site3321],6.42
8,ATTTAACATATAAAATGTACATATATATATATATTT [XGTACX_site2525],6.51
9,GTACCATCAAAATAAATATATATATATATATATTTT [GTGCAC_negctrl_site646],6.61
10,TCATAAATATAAAGTGTGCACTTGAATAATATGTAT,9.34
11,AAAATAAAAAAAATAAATAAAAAAAATAATAATAAA [CACACA_negctrl_site563],6.29
12,TAAATAAATCTGTGCTTGCACTTTTTTTGTTATTTT,6.44
13,CAAACCCACCAACACACACACACAAAAATGATTAAA [CACACA_site2432],6.73
14,ATATATTTTGATTGCACACAGAATTTAAATCATGAT [CACACA_site2343],9.3
15,GAAGATATATAATAATTCATAGTTTTTTAATTTAAA [TGCATGCA_negctrl_site295],5.85
16,TACTTTTTTATTTGGTGTACAAATAAAATCATAATG [XGTACX_site1802],6.66
17,CTCTTTTCTTATAATACACACAGTAATATTTATATA [CACACA_site6824],7.16
18,AATAAAAAAAATTTCTGTACATATATTTATTATATA [XGTACX_site1883],6.12
19,ATTCCTTTATTATCACGTACTTATAAAATATAGTAT [XGTACX_site7498],7.3
20,TTTTAATAAATCATTTTCCTAATATTTATATTTGCT [TGCATGCA_negctrl_site232],5.98
21,TTTTTCATTTAGCTTTTACACACTATATATTATTGA [CACACA_site7888],6.87
22,TTATATATATATTGTTCACACATAATATAAATATTT [CACACA_site5835],6.39
23,ATAAACAGATAAAAGGGTACACACATATATACATGT [XGTACX_site452],6.67

row,Sequence,gcPBM binding intensity (ln)
1,TTAAATAAAATAAAAACATGCACACTTTATTTTTTT [TGCATGCA_site719],8.13
2,ATTATTTTTTTTGAAGTGCAATATTATTTTTAATCA,8.94
3,ATGTGGATTTTATAATGTACATATGATATTATTTTG [XGTACX_site7930],6.35
4,ATGGTTATATTTGAAGTGCAAAAAAAAATATATGTA,8.81
5,TATACTACCCAGAGCTGTACAAAATAATAATAAGTT [XGTACX_site1045],6.69
6,CAATTCAATATATATACACACACACTATTAATAATT [CACACA_site9256],6.89
7,GTTAAGTGGATATATACACACATATGCAATACATGA [CACACA_site7427],7.36
8,TATTTAATTTTTAAATGTACATATAAAATAATATAT [XGTACX_site2422],6.26
9,AAAAAAAATTTCTTCTGTACGCATAAATTTTTATTA [XGTACX_site8721],6.25
10,TTTTTCAGAAAAGAAACACACATATATATATTTATA [CACACA_site2372],6.43
11,CATATAAAATAATTCACACAAATATACAAATACCCA [CACACA_site5340],6.83
12,CCTATCCAGACATATACACACATATCTATTTATATA [CACACA_site5001],7.11
13,TTTACTTTCCCAAGTTGTACTGCTTCTAAGCTTTTT [XGTACX_site2708],6.3
14,TATAAAAAATAATACACACACATGGCGACAAAATAA [CACACA_site2420],7.11
15,AATGATAATATTTCCTTCTTTTTTACTTCTTTCTTT [CACACA_negctrl_site776],6.41
16,AAAATGGTTTATAAATGTACATATATTATATATAAC [XGTACX_site7959],6.62
17,AAAAATATAATATAATGTACACAAAAAAAAAAATTC [XGTACX_site3657],6.63
18,TTTTTATAACGTAATAAATAAAACGTCTATACTATA [XGTACX_negctrl_site176],6.3
19,TATATTATTATAATTTGTACATATCTAATTATATAT [XGTACX_site5342],6.58
20,TAAAGATATTATTTTTGTACATATTGATATAATGAA [XGTACX_site6571],6.31
21,AATTAGACATAATATACACACATATATTATAGATAT [CACACA_site7297],6.5
22,ACGTTTTATAATTAATGTACAAATATTAAAATTGCA [XGTACX_site7869],6.47
23,GAATAAATTAAAAATGCACACTTTGATGGGTACATT [CACACA_site5220],8.68

row,Sequence,gcPBM binding intensity (ln)
1,TATATTTGCAGTAATAATAATTATTATAAAAGATAA [XGTACX_negctrl_site547],6.92
2,TATGAATGGTTAAGTACACACATATTAAGATATGTA [CACACA_site5852],6.13
3,TCATATATTTATGTATGTACATATATATATAGATTA [XGTACX_site380],6.36
4,TTATTTATTTTAAATTCACACATCGTGCTATTATAT [CACACA_site5003],6.34
5,CTTTATAAAATAAGAGTGCGTTATATTGAATTGTAT [GTGCAC_site9390],6.94
6,ATATAAGATTTAAGAAGTACAATTATACAGTAGATC [XGTACX_site7501],6.71
7,ATATAACATAGACACACACACATATAAATATATTAT [CACACA_site7865],6.83
8,GGGAAAGAACCATATACATGCATATTTACCGTTAAA [TGCATGCA_site519],6.17
9,CATATACATACACATACACACATACAGACATACACA [CACACA_site6919],7.2
10,TGAAATTTTATTAATGTGCACATATATTTATTGTTC,10.8
11,ATCACTTGAGAATAATTACATTAATATATATTTATG [TGCATGCA_negctrl_site581],6.21
12,CTTTTTAATTAATACACACACACACCCATATATATA [CACACA_site2292],7.46
13,ATAAAAATGTATATATGTACATATATATATATATAT [XGTACX_site1505],9.15
14,GTAAAAAAAAAAAAATGTACACATATATATAATATA [XGTACX_site159],6.5
15,TTTTTTTTTTTTAATACACACATATATATATTTATT [CACACA_site3994],6.78
16,AACATAATTAAAAATTGTACAGAATTTCAATCGAAA [XGTACX_site7542],6.35
17,TTATTATATATAAGTAGTACAAACAATTAAGAGATA [XGTACX_site4009],6.85
18,TGATGATATAAAAACACACACATATAACATAATACT [CACACA_site6687],6.84
19,ATTGTCTTTTAATAGTGTACTTATTTTAAATATTGC [XGTACX_site8517],6.71
20,TTTCTAATATATAAAGTGCAATACCATTCAGAGTTA,8.41
21,AAGAAAATAAAATAAAATAAAATAAAATAAAAATAT [TGCATGCA_negctrl_site493],6.49
